Reference: patent US20260216175A1, “COMPLEMENT INHIBITION” (Apellis Pharmaceuticals, Inc., priority 2023, published 2026)

These molecules were tested against C3 convertase (CVF:Bb) (Homo sapiens, UniProt P00751) (assay: biochemical).

Point of comparison: COc1cc(C)c2[nH]ccc2c1CN1CCN(CC(F)F)C[C@@H]1c1ccc(C(=O)O)c(OC2COC2)c1, IC50 7120 nM. Against it:
- CCC(=O)Nc1cc([C@H]2CN(CC(F)F)CCN2Cc2c(OC)cc(C)c3[nH]ccc23)ccc1C(=O)O — 17-fold higher, 118000 nM
- COc1cc(C)c2[nH]ccc2c1CN1CCN(C)CC[C@H]1c1ccc(C(=O)O)c(N)c1 — 10-fold lower, 691 nM
- COc1cc(C)c2[nH]ccc2c1CN1CCN(CC(F)F)CC1c1ccc(C(N)=O)c(O)n1 (stereo not shown) — within 1.5-fold, 10200 nM
- COc1cc(C)c2[nH]ccc2c1CN1CCN(CC(F)(F)F)CCC1c1ccc(C(=O)O)cc1 (stereo not shown) — within 1.5-fold, 9470 nM
- COc1cc(C)c2[nH]ccc2c1CN1CCN(CC(F)F)C[C@@H]1c1ccc(C(=O)O)c(C(F)F)c1 — 5.2-fold lower, 1360 nM
- COc1cc(C)c2[nH]ccc2c1CN1CCN(CCC(F)(F)F)C[C@@H]1c1ccc(C(=O)O)c(O)c1 — within 1.5-fold, 6320 nM
- COc1cc(C)c2[nH]ccc2c1CN1CCN(CCC(F)(F)F)C[C@@H]1c1ccc(C(=O)O)c(N)n1 — 2.1-fold higher, 15200 nM
- CCc1cc([C@H]2CN(CC(F)F)CCN2Cc2c(OC)cc(C)c3[nH]ccc23)ccc1C(=O)O — 18-fold lower, 388 nM
- CCC(=O)Nc1cc([C@@H]2CN(CC(F)F)CCN2Cc2c(OC)cc(C)c3[nH]ccc23)ccc1C(=O)O — 5.7-fold lower, 1260 nM
- COc1cc(C)c2[nH]ccc2c1CN1CCN(CC(F)F)C[C@@H]1c1ccc(C(=O)O)c(O)c1 — 1.7-fold lower, 4200 nM
- COc1cc(C)c2[nH]ccc2c1CN1CCN(CC(F)F)C[C@H]1c1ccc(C(=O)O)c2c1CCCN2 — 43-fold lower, 166 nM
- COc1cc(C)c2[nH]ccc2c1CN1CCN(CCC(F)(F)F)C[C@H]1c1ccc(C(N)=O)c(N)c1 — 1.8-fold lower, 3860 nM
- COc1cc(C)c2[nH]ccc2c1CN1CCN(CC(F)(F)F)CC1c1ccc(C(=O)O)c(F)c1 (stereo not shown) — 10-fold lower, 681 nM
- COc1cc(C)c2[nH]ccc2c1CN1CCN(CC(F)F)C[C@@H]1c1ccc(C(=O)O)c(N)c1 — 14-fold lower, 505 nM
- COc1cc(C)c2[nH]ccc2c1CN1CC2CCC(C(F)F)N2CC1c1ccc(C(=O)O)cc1 (stereo not shown) — 14-fold lower, 493 nM
- COc1cc(C)c2[nH]ccc2c1CN1C[C@H]2CCCCN2C[C@H]1c1ccc(C(=O)O)cc1 — 310-fold lower, 22.9 nM
- COc1cc(C)c2[nH]ccc2c1CN1CCN(CC(F)F)C[C@@H]1c1ccc(C(=O)O)c(O)n1 — 2.8-fold higher, 20100 nM
- COc1cc(C)c2[nH]ccc2c1CN1C[C@@H]2CCCCN2C[C@H]1c1ccc(C(=O)O)cc1 — 2.7-fold lower, 2610 nM
- COc1cc(C)c2[nH]ccc2c1CN1CCN(CC(F)F)C[C@H]1c1ccc(C(=O)O)c(N2CCCCC2=O)c1 — 6.8-fold lower, 1050 nM
- COc1cc(C)c2[nH]ccc2c1CN1CCN(CC(F)F)C[C@H]1c1ccc(C(=O)O)c(N2CCCC2)c1 — 8.8-fold lower, 810 nM
- COc1cc(C)c2[nH]ccc2c1CN1C[C@H]2CCCN2C[C@@H]1c1ccc(C(=O)O)cc1 — 2.2-fold higher, 15600 nM
- CNc1cc([C@@H]2CN3CCC[C@H]3CN2Cc2c(OC)cc(C)c3[nH]ccc23)ccc1C(=O)O — 4.7-fold lower, 1530 nM
- COc1cc(C)c2[nH]ccc2c1CN1CCN(CC(F)(F)F)C[C@H]1c1ccc(C(=O)O)c(O)c1 — 25-fold lower, 282 nM
- COc1cc(C)c2[nH]ccc2c1CN1CCN(C)C(C(F)F)CC1c1ccc(C(=O)O)cc1 (stereo not shown) — within 1.5-fold, 9290 nM
- COc1cc(C)c2[nH]ccc2c1CN1C[C@H]2C[C@@H](F)CN2CC1c1ccc(C(=O)O)cc1 (stereo partly shown) — within 1.5-fold, 6970 nM
- COc1cc(C)c2[nH]ccc2c1CN1CCN(CC(F)(F)F)CCC1c1ccc(-c2nn[nH]n2)cc1 (stereo not shown) — 9.2-fold lower, 770 nM
- COc1cc(C)c2[nH]ccc2c1CN1CCN(CC(F)F)C[C@@H]1c1ccc(C(=O)O)c2c1CCCN2 — 2.1-fold higher, 15100 nM
- COc1cc(C2CN(C)CCN2Cc2c(OC)cc(C)c3[nH]ccc23)ccc1C(=O)O (stereo not shown) — 17-fold lower, 415 nM
- COc1cc(C)c2[nH]ccc2c1CN1CC(C)N(C)C[C@@H]1c1ccc(C(=O)O)cc1 (stereo partly shown) — 2.7-fold higher, 18900 nM
- COc1cc(C)c2[nH]ccc2c1CN1CC[C@@H]2CCCN2CC1c1ccc(C(=O)O)cc1 (stereo partly shown) — within 1.5-fold, 6980 nM
- COc1cc(C)c2[nH]ccc2c1CN1C[C@@H]2CC[C@H](C)N2C[C@H]1c1ccc(C(=O)O)cc1 — 9.4-fold lower, 760 nM
- COc1cc(C)c2[nH]ccc2c1CN1C[C@@H]2CCN2C[C@@H]1c1ccc(C(=O)O)cc1 — 6.2-fold higher, 44200 nM
- COc1cc(C)c2[nH]ccc2c1CN1CCN(CC(F)F)C[C@@H]1c1ccc(C(=O)O)c2c1OCCO2 — 14-fold higher, 96900 nM
- COc1cc(C)c2[nH]ccc2c1CN1CCN(CCC(F)(F)F)C[C@@H]1c1ccc(C(=O)O)c(N(C)C)c1 — 4.1-fold higher, 29100 nM
- COc1cc(C)c2[nH]ccc2c1CN1CCN(CC(F)F)C[C@H]1c1ccc(C(=O)O)c(O)c1 — 35-fold lower, 202 nM
- COc1cc(C)c2[nH]ccc2c1CN1CCN(CC(F)F)C[C@H]1c1ccc(C(=O)O)c(N)n1 — 16-fold lower, 453 nM
- COc1cc(C)c2[nH]ccc2c1CN1CCN(C)CC1c1ccc(C(=O)O)c(F)c1 (stereo not shown) — 19-fold lower, 383 nM
- Cc1cc(OC(F)F)c(CN2CCN(CC(F)F)C[C@@H]2c2ccc(C(=O)O)c(N)c2)c2cc[nH]c12 — 15-fold higher, 106000 nM
- COc1cc(C)c2[nH]ccc2c1CN1C[C@H]2C[C@H]3C[C@H]3N2C[C@H]1c1ccc(CO)cc1 — 10-fold higher, 71900 nM
- COc1cc(C)c2[nH]ccc2c1CN1CCN(CC(F)F)C[C@@H]1c1ccc(C(=O)O)c(NCC2CC2)c1 — 5.7-fold higher, 40900 nM
- COc1cc(C)c2[nH]ccc2c1CN1CCN(CC(F)F)C[C@H]1c1ccc(C(=O)O)c2c1OCCN2 — 48-fold lower, 148 nM
- COc1cc([C@H]2CN(CCC(F)(F)F)CCN2Cc2c(OC)cc(C)c3[nH]ccc23)ccc1C(=O)O — 3.9-fold higher, 27700 nM
- COc1cc(C)c2[nH]ccc2c1CN1CCN(CC(F)F)C[C@H]1c1ccc(C(=O)O)c(NC2CCC2)c1 — 12-fold lower, 601 nM
- COc1cc(C)c2[nH]ccc2c1CN1CCN(C)CC1c1ccc(C(=O)O)c(C)c1 (stereo not shown) — 6.1-fold lower, 1160 nM
- COc1cc(C)c2[nH]ccc2c1CN1CCN(S(C)(=O)=O)CCC1c1ccc(C(=O)O)cc1 (stereo not shown) — 3-fold higher, 21300 nM
- COc1cc(C)c2[nH]ccc2c1CN1CCN(CC(F)F)CC1c1ccc(C(=O)O)c(N[C@@H](C)C(F)(F)F)c1 (stereo partly shown) — 7.6-fold lower, 940 nM
- COc1cc(C)c2[nH]ccc2c1CN1CCN(CC(F)F)CC1c1ccc(C(=O)O)n2ccnc12 (stereo not shown) — within 1.5-fold, 8140 nM
- COc1cc(C)c2[nH]ccc2c1CN1CCN(CC(F)F)C[C@@H]1c1ccc(C(=O)O)c(NC2CCOCC2)c1 — 6.5-fold higher, 46200 nM
- COc1cc(C2CN(CC(F)(F)F)CCN2Cc2c(OC)cc(C)c3[nH]ccc23)ccc1C(=O)O (stereo not shown) — 10-fold lower, 691 nM
- COc1cc(C)c2[nH]ccc2c1CN1CCN(CCC(F)(F)F)C[C@@H]1c1ccc(C(=O)O)c(Cl)c1 — 6.4-fold higher, 45400 nM
- Cc1cc(OC(F)F)c(CN2CCN(CC(F)F)C[C@H]2c2ccc(C(=O)O)c(N)c2)c2cc[nH]c12 — 2.6-fold lower, 2690 nM
- COc1cc(C)c2[nH]ccc2c1CN1CCN(CC(F)F)C[C@@H]1c1ccc(C(=O)O)c(Nc2cnn(C)c2)c1 — within 1.5-fold, 9240 nM
- COc1cc(C)c2[nH]ccc2c1CN1CCCN(C)C(=O)C1c1ccc(C(=O)O)cc1 (stereo not shown) — within 1.5-fold, 6150 nM
- COc1cc(C)c2[nH]ccc2c1CN1C[C@H]2CCN2C[C@@H]1c1ccc(C(=O)O)cc1 — 3.9-fold higher, 28100 nM
- COc1cc(C)c2[nH]ccc2c1CN1CCN(CC(F)F)C[C@H]1c1ccc(C(=O)O)c(NCC2CC2)c1 — 9.3-fold lower, 767 nM
- COc1cc(C)c2[nH]ccc2c1CN1CCN(CC(F)F)C[C@H]1c1ccc(C(=O)O)c(NC2CCOCC2)c1 — 45-fold lower, 157 nM
- COc1cc(C)c2[nH]ccc2c1CN1CC2CC(F)(F)CCN2CC1c1ccc(C(=O)O)cc1 (stereo not shown) — 5-fold lower, 1410 nM
- COc1cc(C)c2[nH]ccc2c1CN1CCN2CCCC2C1c1ccc(C(=O)O)cc1 (stereo not shown) — 8.5-fold lower, 835 nM
- COc1cc(C)c2[nH]ccc2c1CN1CCN(C)C(=O)CC1c1ccc(C(=O)O)cc1 (stereo not shown) — 4.8-fold higher, 34200 nM
- COc1cc(C)c2[nH]ccc2c1CN1CCN(CC(F)(F)F)C[C@H]1c1ccc(C(=O)O)c(N)c1 — 200-fold lower, 36.4 nM
- COc1nc(C)c2[nH]ccc2c1CN1CCN(CC(F)F)CC1c1ccc(C(=O)O)c(C)c1 (stereo not shown) — 3.2-fold higher, 22900 nM
- COc1cc(C)c2[nH]ccc2c1CN1C[C@@H]2CCCN2C[C@H]1c1ccc(C(=O)O)cc1 — 6-fold lower, 1180 nM
- CCc1cc(C2CN(CC(F)F)CCN2Cc2c(OC)cc(C)c3[nH]ccc23)ccc1C(=O)O (stereo not shown) — 12-fold lower, 580 nM
- COc1cc(C)c2[nH]ccc2c1CN1CCN(C)CC1c1ccc(C(=O)O)c(O)c1 (stereo not shown) — 26-fold lower, 276 nM
- COc1cc(C)c2[nH]ccc2c1CN1CCN(CC(F)F)C[C@@H]1c1ccc(C(=O)O)c(NC2COC2)c1 — within 1.5-fold, 5580 nM
- COc1cc(C)c2[nH]ccc2c1CN1CCN(CC(F)F)C[C@H]1c1ccc(C(=O)O)c2c1OCCO2 — 21-fold lower, 343 nM
- COc1cc(C)c2[nH]ccc2c1CN1CCN(CC(F)F)C[C@@H]1c1cnc(C(=O)O)c(N)c1 — 7.2-fold higher, 51500 nM
- COc1cc(C)c2[nH]ccc2c1CN1CCN(CC(F)F)C[C@@H]1c1ccc(C(=O)O)c(NC(C)=O)c1 — 1.9-fold higher, 13200 nM
- COc1cc(C)c2[nH]ccc2c1CN1CCN(C)CC[C@@H]1c1ccc(C(=O)O)cc1 — 2.4-fold lower, 3010 nM
- CNc1cc([C@@H]2CN(CCC(F)(F)F)CCN2Cc2c(OC)cc(C)c3[nH]ccc23)ccc1C(=O)O — 180-fold lower, 39.8 nM
- COc1cc(C)c2[nH]ccc2c1CN1CCCN(CC(F)F)CC1c1ccc(C(=O)O)cc1 (stereo not shown) — 86-fold lower, 83.1 nM
- COc1cc(C)c2[nH]ccc2c1CN1CCN(CCC(F)(F)F)C[C@H]1c1ccc(C(=O)O)c(O)c1 — 150-fold lower, 47.8 nM
- CNc1cc([C@H]2CN(CCC(F)(F)F)CCN2Cc2c(OC)cc(C)c3[nH]ccc23)ccc1C(=O)O — 5.4-fold higher, 38600 nM
- COc1cc(C)c2[nH]ccc2c1CN1CCN(CCC(F)(F)F)C[C@@H]1c1ccc(C(N)=O)c(N)c1 — 17-fold higher, 119000 nM
- COc1cc(C)c2[nH]ccc2c1CN1CCN(C)CC[C@@H]1c1ccc(C(=O)O)c(O)c1 — 5.2-fold lower, 1380 nM
- CCc1cc([C@@H]2CN(CC(F)F)CCN2Cc2c(OC)cc(C)c3[nH]ccc23)ccc1C(=O)O — 6.7-fold higher, 47900 nM
- COc1cc(C)c2[nH]ccc2c1CN1CCCN(CC(F)(F)F)C[C@@H]1c1ccc(C(=O)O)cc1 — 7.3-fold lower, 973 nM
- COc1cc(C)c2[nH]ccc2c1CN1C[C@@H]2C[C@@H](F)CN2CC1c1ccc(C(=O)O)cc1 (stereo partly shown) — 1.6-fold higher, 11700 nM
